Experimental data from the RNAGym collection of RNA variant scans (doi:10.1101/gad.245936.114).
Variants at the background level are over-represented here.

B1: tRNA (parent)
chain: CUCUCGGUAGCCAAGUUGGUUUAAGGCGCAAGACUUUAAUUUAUCACUACGAAAUCUUGAGAUCGGGCGUUCGACUCGCCCCCGGGAGAUUUUUUCCUCGAGCAA

Variants of: B1
Test: nonsense suppression (GFP-seq) (ratio to wild type); higher = more function; SUP4oc tRNA, yeast GFP reporter sort-seq
Outline: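 Yeast carrying genome-integrated SUP4oc tRNA variants from a library with ~3% random mutations were grown in raffinose/galactose medium with 80 mg/L adenine. Each strain also carried a galactose-driven GFP ochre reporter and RFP. Cells were sorted into GFP/RFP bins, and each bin was Illumina-sequenced (phred ≥30). Nonsense suppression (GFPSEQ) is the bin median GFP/RFP, weighted by each variant's estimated cell share per bin, relative to wild-type SUP4oc; variants needed ≥100 reads and ≥30 cells.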

Nonsense suppression, ≤ 0.026:
G7A C29G A74G
G7A C29U G65U C72A
G7A C34A C72G C75G C83U
G7A C34U C81G
G7A C56A G85A G88U
G7A C56G
G7A C56G C79G C81A
G7A C64A G66A C80U
G7A C77G
G7A C77U
G7A C81G G85A
G7A G10A U21G A33G U58C A60U G61C
G7A G10C A23G C56A
G7A G15C G18A G78A G84A A87U
G7A G18U
G7A G19C A60U
G7A G25C A60C
G7A G25U
G7A G25U G61U
G7A G26A
G7A G26C G67A
G7A G26U
G7A G26U C29A
G7A G28A
G7A G28U
G7A G32A C34U C64A C68G
G7A G32C C79A
G7A G59A
G7A G59A U76C G78A C82A G88U
G7A G66A
G7A G73C
G7A G78U
G7A G88C
G7A U8C A30C U58A
G7A U8G A54C C81U A87G
G7A U17C C27A A62G U70G
G7A U17C U55G G86C
G7A U20A A60U U70C
G7A U20C C82A G86A G88A A89C
G7A U20C U70A
G7A U20G C34U A62C
G7A U21A G26A U57G G86C
G7A U21A U76A
G7A U21G G67C
G7A U22C G59A
G7A U35G C64G
G7A U35G U57G C79G
G7A U55C
G7A U55G A60C C64U G78A
G7A U58G C82U
G7A U63A C79A G85U
G7A U63C C82A C83G
G7C A9G U16G U71A C82U
G7C A9U U17G C77G G88C
G7C A13C
G7C A13C A62U
G7C A14C
G7C A14G C68A G78A
G7C A14G U58C G67C
G7C A14U C29G U58A
G7C A23C C64A G67C
G7C A23U
G7C A23U G69C
G7C A24G A54C U57A
G7C A24G G28U U63G A87G G88U
G7C A24U A60G
G7C A24U U57A
G7C A30U A33G C79G C80U
G7C A31C
G7C A31C G32C
G7C A31C G84U A87G
G7C A31G A33U
G7C A31U G78U
G7C A33C
G7C A33G A60U G88U
G7C A33G A87G
G7C A33G C75A
G7C A33G G84A
G7C A33U G73A
G7C A54U
G7C A60G
G7C A62C
G7C A74C U76C
G7C A74G
